# Paper PMC4336329 (PLoS ONE, 2015)
# The whole screen tested about 310,000 compounds, of which about 14,000 (4.5%) showed an effect of 50% or more. The effect is printed as a negative number. The list shows a part of the results.
# Molecular target: human ether-à-go-go-related gene (hERG) potassium channel (human, UniProt Q12809)
# Experiment: primary screen, population patch clamp on CHO cells stably expressing hERG
# 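Note: peak tail current of the secondary pulse compared with the same well before compound.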
# Sequence of human ether-à-go-go-related gene (hERG) potassium channel (Q12809 whole entry, looked up): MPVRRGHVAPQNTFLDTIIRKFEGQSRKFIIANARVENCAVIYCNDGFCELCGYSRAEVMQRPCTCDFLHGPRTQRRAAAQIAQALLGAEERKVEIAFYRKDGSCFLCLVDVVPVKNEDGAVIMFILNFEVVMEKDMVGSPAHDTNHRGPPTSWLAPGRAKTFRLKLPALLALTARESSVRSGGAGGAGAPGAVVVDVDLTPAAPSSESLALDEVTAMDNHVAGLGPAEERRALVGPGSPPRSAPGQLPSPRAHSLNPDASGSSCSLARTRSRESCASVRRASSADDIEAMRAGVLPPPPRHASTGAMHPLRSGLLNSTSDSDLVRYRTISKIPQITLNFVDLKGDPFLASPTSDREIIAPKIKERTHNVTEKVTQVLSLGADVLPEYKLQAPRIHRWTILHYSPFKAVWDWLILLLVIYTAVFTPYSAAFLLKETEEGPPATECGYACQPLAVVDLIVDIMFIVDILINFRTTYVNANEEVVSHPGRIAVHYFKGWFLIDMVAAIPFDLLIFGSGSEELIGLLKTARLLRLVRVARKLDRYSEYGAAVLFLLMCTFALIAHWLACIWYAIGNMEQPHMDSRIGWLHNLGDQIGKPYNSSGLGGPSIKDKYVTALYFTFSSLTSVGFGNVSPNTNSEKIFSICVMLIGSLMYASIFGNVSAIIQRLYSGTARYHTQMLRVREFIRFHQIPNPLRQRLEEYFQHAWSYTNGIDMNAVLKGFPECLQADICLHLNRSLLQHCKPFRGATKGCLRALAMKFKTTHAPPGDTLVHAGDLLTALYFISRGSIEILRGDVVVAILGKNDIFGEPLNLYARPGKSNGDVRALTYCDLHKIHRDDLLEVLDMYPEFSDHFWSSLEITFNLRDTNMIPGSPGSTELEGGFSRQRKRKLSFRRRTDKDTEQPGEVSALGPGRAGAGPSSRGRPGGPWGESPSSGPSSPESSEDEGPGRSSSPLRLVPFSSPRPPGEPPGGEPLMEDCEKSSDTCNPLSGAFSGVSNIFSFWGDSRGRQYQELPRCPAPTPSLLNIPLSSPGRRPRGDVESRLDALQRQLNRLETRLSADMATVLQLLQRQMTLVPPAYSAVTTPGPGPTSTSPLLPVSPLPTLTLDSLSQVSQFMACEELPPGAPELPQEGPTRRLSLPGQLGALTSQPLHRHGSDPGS
row,SMILES,"hERG current change (%, negative = inhibition) at 10uM [%]"
1,COc1ccc(CCC(=O)Nc2nc3c(s2)CN(C)CC3)cc1OC,18
2,CCOC(=O)c1sc(NC(=O)CS(=O)(=O)c2ccc(C)cc2)nc1C,3.25
3,CC1CCCCC12NC(=O)N(CC(=O)Nc1ccc(N3CCOCC3)cc1)C2=O (centres unmarked),1.78
4,Cc1cc(C)n(CC2CC(=O)N(c3ccc(F)c(Cl)c3)C2=O)n1 (centres unmarked),-3.94
5,CCn1c(COc2ccccc2C)nnc1SCC(=O)OC,-9.68
6,CCOc1ccc(C2=CC(=O)C[C@H](c3ccc(OC)cc3)C2)cc1,-6.32
7,O=C(CCCC(=O)c1ccc(O)cc1)c1ccc(O)cc1,-0.901
8,Cc1ccc(S(=O)(=O)N(C)C)cc1NC(=O)COC(=O)Cc1n[nH]c(=O)c2ccccc12,16.2
9,CCOC(=O)N1CCN(C(=O)/C(=C/c2ccc(Cl)cc2)NC(=O)c2ccccc2)CC1,-74.7
10,COc1cccc(NC2=NCCCCC2)c1,1.26
11,COc1ccc(CCNC(=O)C2CCN(S(=O)(=O)c3ccc(SC)cc3)CC2)cc1,7.89
12,CCOc1ccccc1NC(=O)Nn1cnnc1,11
13,COc1ccc(-n2ccnc2CN2CCN(C3CCCC3)C(CCO)C2)cc1 (centres unmarked),-29.1
14,COc1cccc(C2C=C(c3ccc(OC)cc3OC)Nc3nnnn32)c1 (centres unmarked),1.76
15,Cc1ccc(NC(=O)CSc2nc(C)c(C)c(C)n2)c([N+](=O)[O-])c1,-3.98
16,O=C(NCCN1CCOCC1)c1cc(S(=O)(=O)NCCCN2CCCC2=O)ccc1Cl,4.24
17,Cc1[nH]c2ccccc2c1Cc1nnc(SCC(=O)NCc2ccco2)o1,4.19
18,O=C(Nc1cccc(F)c1)c1ccc(S(=O)(=O)N2CCOCC2)cc1,-13.6
19,Cc1onc(-c2ccccc2)c1C(=O)n1cc(Br)cn1,-12.1
20,Cc1csc(NC(=O)CSc2ncn(-c3ccccc3)n2)n1,-20.3
21,Cl.O=C(NC1CCCCC1)N1CCNCC1,19.1
22,O=C(NCc1ccccc1)C1(C(F)(F)F)CC(CCCO)CCCO1 (centres unmarked),-5.87
23,CC(=O)Nc1ccc(-c2csc(NNC(=O)c3ccc(C)cc3)n2)cc1,20.6

row,SMILES,"hERG current change (%, negative = inhibition) at 10uM [%]"
1,COc1ccc(OC)c(NC(=O)CSc2nnc(Cn3nnc4ccccc43)n2C)c1,-7.34
2,COc1cc(C(=S)N2CCC(C)CC2)ccc1O,5.1
3,CC(=O)c1c(C)[nH]c(C(=O)CSc2nc3ccccc3n2C)c1C,17.8
4,O=C(O)CC12CC3CC(C1)CC(n1cncn1)(C3)C2,26.1
5,Cc1ccc(C(C)C)c(OCCCN2CCc3ccccc3C2)c1.Cl,-70.1
6,COC(=O)C1=C(c2ccc(Cl)c(C(F)(F)F)c2)C[C@@H]2CC[C@H]1N2C(=O)NCCOc1ccccc1Cl,16
7,CNC(C)(C)Cc1ccccc1.O=S(=O)(O)O,13.3
8,CCCNc1nc2ccccc2n2c(C)nnc12,-5.31
9,COc1ccc(C(=O)Nc2nnc(C3=COCCO3)o2)cc1OC,20
10,COC(=O)c1ccc(COc2cccc3c2CCN(Cc2ccccc2)C3=O)o1,-46.6
11,O=S(=O)(Nc1ccc(O)c2ccccc12)c1cccs1,-13.6
12,COc1ccc(C(=O)NCCc2c[nH]c3ccccc23)cc1OC,-0.252
13,COc1ccc(NS(=O)(=O)c2cc(NC(=O)COc3ccccc3F)ccc2OC)cc1,-9.26
14,CCCCn1c(N)c(N(CCC(C)C)C(=O)c2ccc(C)o2)c(=O)[nH]c1=O,16.2
15,COCCN(C(=O)CSc1ncccn1)c1c(N)n(Cc2ccccc2)c(=O)[nH]c1=O,4.3
16,Cc1ccc(-c2nnn(CC(=O)N(c3cccc(F)c3)C(C(=O)NC(C)(C)C)c3ccco3)n2)o1 (centres unmarked),17.3
17,CC(=O)Nc1ccc(NC(=O)C(C)OC(=O)c2oc3ccccc3c2C)cc1 (centres unmarked),-19.7
18,CCOC(=O)C1CCCCC12C(C#N)=C(N)Oc1n[nH]c(C)c12 (centres unmarked),10.1
19,CC(C)CC(=O)Nc1nnc(S(=O)(=O)N2c3ccccc3CC2C)s1 (centres unmarked),13.8
20,COc1ccc(CCC(=O)OCC(=O)c2ccc(C)cc2)cc1,-2.13
21,O=C(Nc1nc2c(s1)CCCC2)C1CCCN1C(=O)c1cccs1 (centres unmarked),1.61
22,NNC(=O)c1nc(-c2ccccc2)cc(-c2ccccc2)n1,-11.7
23,Cc1ccccc1OCC(O)Cn1c(=N)n(CCN2CCOCC2)c2ccccc21.Cl (centres unmarked),-61.5

row,SMILES,"hERG current change (%, negative = inhibition) at 10uM [%]"
1,CCc1cc(=O)oc2cc(OCC(=O)N3CCCc4ccccc43)ccc12,-5.03
2,CC(C)(C)C(=O)COC(=O)c1cccc(NC(=O)c2ccco2)c1,9.16
3,CN(Cc1ccccc1)C(=O)COc1cccnc1[N+](=O)[O-],14.2
4,O=C(Nc1nccs1)c1c(O)c2c([nH]c1=O)CCCC2,1.04
5,Cc1onc(-c2ccccc2)c1C(=O)NCCc1c[nH]c2ccccc12,-27.8
6,O=C1NC2=C(C(=O)CCC2)C(c2ccccc2[N+](=O)[O-])N1 (centres unmarked),17.9
7,O=C(NCC(O)c1ccccc1)c1ccc(Cl)c(S(=O)(=O)N2CCCCC2)c1 (centres unmarked),8.95
8,C/C(=N\NC(=O)c1ccccc1O)c1ccc(NC(=O)Cc2ccccc2)cc1,-4.54
9,COc1ccc(NC2CCCN(C(=O)c3ccc(C(C)=O)cc3)C2)cc1 (centres unmarked),-1.79
10,CC(C)N1CCN(c2ccc(O)cc2)CC1,1.51
11,CC(=O)Nc1ccc(OC(=O)c2cc3cc(Br)ccc3oc2=O)cc1,17.6
12,CC(C)OC(=O)CSc1nnc(CNc2cccc(Cl)c2)n1C,-3.57
13,COc1cc(C)c(NC(=O)COc2cccc3c2OC(C)(C)C3)cc1OC,-7.8
14,Nc1ccc(Oc2ccc3c(c2)C(=O)NC3=O)cc1,2.73
15,COc1ccc(CCN(C)C(=O)C2CCN(C(=O)Nc3ccccc3)CC2)cc1OC,-4.34
16,CC(C)(C)NS(=O)(=O)c1ccc(Oc2ncc(C(F)(F)F)cc2Cl)cc1,15.3
17,O=C(O)CCN1C(=O)CC(N2C(=O)/C(=C/c3ccc(Cl)cc3)SC2=S)C1=O (centres unmarked),18.8
18,CN(C)CCCNC(=O)c1cc(Br)ccc1Cl,0.95
19,Cc1ccc(O)c(C(=O)c2cnc3c(c2)c(C)nn3C)c1,10.2
20,O=C(NCCc1ccccc1)C1CCN(S(=O)(=O)c2cccc3nsnc23)CC1,5.65
21,Cc1noc(C)c1S(=O)(=O)N1CCCC(C(=O)NCc2ccccc2Cl)C1 (centres unmarked),16.8
22,Cc1cc(C(=O)CN2C(=O)c3ccccc3S2(=O)=O)c(C)n1CC1CCCO1 (centres unmarked),-9.85
23,CC(CN1CCOCC1)OC(=O)c1cccs1.Cl (centres unmarked),9.51

row,SMILES,"hERG current change (%, negative = inhibition) at 10uM [%]"
1,COc1ccc(OCc2cc(C(=O)N3CCC(OC)CC3)no2)c2ccccc12,14.4
2,CCCCOC(=O)C1=C(C)Nc2ncnn2C1c1cc(OC)c(OC)cc1OC (centres unmarked),-12
3,Cc1ccn2c(C=O)c(-c3ccc(F)cc3)c(C=O)c2c1,-12.9
4,COc1ccc(/C=C/C(=O)Nc2ccc(S(=O)(=O)Nc3cc(C)nc(C)n3)cc2)cc1OC,-7.85
5,Cc1cc(NC(=O)COC(=O)c2ccc(F)c(S(=O)(=O)N3CCOCC3)c2)no1,-13.4
6,CN(C)CCN(Cc1ccccc1)c1ccnc(N(C)C)c1C#N,-26.7
7,CCOC(=O)CCc1c(C)c2ccc(OCC)c(C)c2oc1=O,-8.3
8,O=C(CSc1nnc(-c2ccccc2F)o1)N1CCNC1=O,-32.1
9,CCOc1ccc(CCNC(=O)COC(=O)Cn2nc(C)c([N+](=O)[O-])c2C)cc1OCC,3.43
10,CC1(NC(=O)COc2ccccc2-c2ccccc2)CCS(=O)(=O)C1 (centres unmarked),-18.9
11,CCOC(=O)N1CCN(C(=O)CN(c2ccc(OCc3ccccc3)cc2)S(C)(=O)=O)CC1,-34.4
12,Cl.O=C(Nc1ccnc(=O)[nH]1)c1sc2ccccc2c1Cl,30.6
13,CCOC(=O)C1=NNC(C(=O)c2ccc(Cl)cc2)C1c1ccc(OC)cc1 (centres unmarked),-5.47
14,O=C(Nc1ccccc1C(=O)O)c1cc(S(=O)(=O)N2CCOCC2)cs1,-66.4
15,C=CCn1c(SCC(=O)NCc2cccs2)nnc1C1CCCCC1,3.81
16,Cc1ccc(-n2c(O)c(C=NCc3ccccn3)c(=O)[nH]c2=S)cc1,2.66
17,COc1cc(/C=N/NC(=O)c2[nH]nc3c2CCc2ccccc2-3)ccc1O,-10.1
18,COc1ccc(CCNC(=O)C2CCN(C(=O)c3ccc(Br)cc3)CC2)cc1,-45.1
19,Cn1ncc([N+](=O)[O-])c1C(=O)Nc1ccc(-c2nc3ccccc3o2)cc1,29
20,Cc1ccc(C)c(OCC(=O)Nc2ccncc2)c1,7.11
